# The list shows a part of the results. Most values come without repeats; read them as rough.
# Test system: IPC-298
# Test: cell count relative to DMSO control; melanoma cells; higher = more viable cells
# Settings: library dose: low library concentration; 72 h
# 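Further: cell number obtained by counting DAPI-stained nuclei in high-throughput microscope images with image analysis software, screen run in 1,536-well plates.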
row,SMILES,cell count
1,"COc1cc(N2CCC(N3CCN(C)CC3)CC2)ccc1Nc1ncc(Cl)c(Nc2ccccc2S(=O)(=O)C(C)C)n1 + Cn1cc(/C=C2\C(=O)Nc3cccnc32)c2ccccc21 [GW441756] (first compound 0.08 µM, partner dose 0.4 µM)",94.8%
2,"CCN(CC)CCCCNc1ncc2cc(-c3cc(OC)cc(OC)c3)c(NC(=O)NC(C)(C)C)nc2n1 + Cn1cc(/C=C2\C(=O)Nc3cccnc32)c2ccccc21 [GW441756] (first compound 0.1 µM, partner dose 0.4 µM)",98.5%
3,"N#Cc1c(O)c2c(-c3ccc(-c4ccccc4O)cc3)csc2[nH]c1=O + O=c1cc(-c2cccc3c2Sc2ccccc2S3)oc(N2CCOCC2)c1 [KU55933] (first compound 2 µM, partner dose 1 µM)",91.5%
4,"COc1ccc(COc2ccc(Cc3cnc(N)nc3N)cc2OC)cc1 + CC(C)CCN1c2nc(Nc3cc(F)c(O)c(F)c3)ncc2N(C)C(=O)C1C [BID1870] (first compound 1 µM, partner dose 0.2 µM)",99.1%
5,"COc1cc2ncnc(Nc3ccc(Oc4ccccc4)cc3)c2cc1OC + c1cc(-c2cnn3cc(-c4ccc(OCCN5CCCCC5)cc4)cnc23)ccn1 [Dorsomorphin] (first compound 2 µM, partner dose 0.4 µM)",94.2%
6,"O=C(O)C(=O)Nc1sc2c(c1C(=O)O)CCNC2 + c1cc(-c2cnn3cc(-c4ccc(OCCN5CCCCC5)cc4)cnc23)ccn1 [Dorsomorphin] (first compound 1.66667 µM, partner dose 0.4 µM)",101%
7,"COC(=O)c1sccc1S(=O)(=O)Nc1ccc(Nc2ccccc2)cc1OC + Oc1nc(-c2ccc(C(F)(F)F)cc2)nc2c1CSCC2 [XAV939] (first compound 1 µM, partner dose 2 µM)",99.4%
8,"O=C1NC(=O)/C(=C/c2ccc(-c3ccc(F)cc3O)o2)S1 + COc1cc(N2CCC(N3CCN(C)CC3)CC2)ccc1Nc1ncc(Cl)c(Nc2ccccc2S(=O)(=O)C(C)C)n1 [NVP-TAE684] (first compound 1 µM, partner dose 0.08 µM)",97.6%
9,"O=S(=O)(c1ccccc1)N(CC(F)(F)F)c1ccc(C(O)(C(F)(F)F)C(F)(F)F)cc1 + CCCCCCCCCCCC1=C(O)C(=O)C=C(O)C1=O [Embelin] (first compound 1.4 µM, partner dose 1.2 µM)",91.3%
10,"O=C(O)C(=O)Nc1sc2c(c1C(=O)O)CCNC2 + O=C1NC(=O)/C(=C/c2ccc(-c3ccc(F)cc3O)o2)S1 [AS252424] (first compound 1.66667 µM, partner dose 1 µM)",97.9%
11,"Cc1cc([N+](=O)[O-])ccc1NS(=O)(=O)c1cc(Cl)ccc1Cl + CC(C)CCN1c2nc(Nc3cc(F)c(O)c(F)c3)ncc2N(C)C(=O)C1C [BID1870] (first compound 1 µM, partner dose 0.2 µM)",89.8%
12,"COc1ccc2c(c1)CCC1C2CCC2(C)C(NCCCCCCN3C(=O)C=CC3=O)CCC12 (stereo not drawn) + O=S(=O)(c1ccccc1)N(CC(F)(F)F)c1ccc(C(O)(C(F)(F)F)C(F)(F)F)cc1 [T0901317] (first compound 0.4 µM, partner dose 1.4 µM)",98.3%
13,"Oc1nc(-c2ccc(C(F)(F)F)cc2)nc2c1CSCC2 + CC(C)CCN1c2nc(Nc3cc(F)c(O)c(F)c3)ncc2N(C)C(=O)C1C [BID1870] (first compound 2 µM, partner dose 0.2 µM)",91.8%
14,"COc1cc(N2CCC(N3CCN(C)CC3)CC2)ccc1Nc1ncc(Cl)c(Nc2ccccc2S(=O)(=O)C(C)C)n1 + O=c1cc(-c2cccc3c2Sc2ccccc2S3)oc(N2CCOCC2)c1 [KU55933] (first compound 0.08 µM, partner dose 1 µM)",96.4%
15,"N#Cc1c(O)c2c(-c3ccc(-c4ccccc4O)cc3)csc2[nH]c1=O + CCCCCCCCCCCC1=C(O)C(=O)C=C(O)C1=O [Embelin] (first compound 2 µM, partner dose 1.2 µM)",108%
16,"c1cc(-c2cnn3cc(-c4ccc(OCCN5CCCCC5)cc4)cnc23)ccn1 [Dorsomorphin] + O=c1cc(-c2cccc3c2Sc2ccccc2S3)oc(N2CCOCC2)c1 [KU55933] (first compound 0.4 µM, partner dose 1 µM)",102%
17,"COc1ccc(-c2ccc3c(N4CCOCC4)nc(N4C[C@@H](C)O[C@@H](C)C4)nc3n2)cc1CO + CCN(CC)CCCCNc1ncc2cc(-c3cc(OC)cc(OC)c3)c(NC(=O)NC(C)(C)C)nc2n1 [PD173074] (first compound 0.02 µM, partner dose 0.1 µM)",101%
18,"N#Cc1c(O)c2c(-c3ccc(-c4ccccc4O)cc3)csc2[nH]c1=O + COc1ccc2c(c1)CCC1C2CCC2(C)C(NCCCCCCN3C(=O)C=CC3=O)CCC12 [U73122] (first compound 2 µM, partner dose 0.4 µM)",103%
